Data: PubChem BioAssay AID360 (National Center for Advancing Translational Sciences (NCATS), 2006)
The campaign covered roughly 48,000 compounds. About 550 (1.1%) were called active. About 4% were inconclusive and are not listed. Cut-off read from the data, not from the text of the source: active = potency below about 15 µM; inconclusive = mostly about 16 µM to 33 µM; inactive = weaker than that. Some of the results follow.

target: Lysosomal acid glucosylceramidase (Homo sapiens) (UniProt P04062); experiment: Glucocerebrosidase; conditions: purified enzyme, resorufin glucoside fluorescence (screen aimed at inhibitors), 20 min;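 note: the screen sought inhibitors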
How it was run: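 Compounds titrated against 0.2 nM normal enzyme, 30 uM resorufin beta-D-glucopyranoside substrate, citrate/phosphate buffer with taurocholate and tween-20, pH 5.9. Reaction ran 20 min at room temperature; fluorescence (Ex 548/Em 600) gave AC50.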
Potency is the fitted concentration of half-maximal effect.

UniProt P04062, sequence (P04062 whole entry, looked up): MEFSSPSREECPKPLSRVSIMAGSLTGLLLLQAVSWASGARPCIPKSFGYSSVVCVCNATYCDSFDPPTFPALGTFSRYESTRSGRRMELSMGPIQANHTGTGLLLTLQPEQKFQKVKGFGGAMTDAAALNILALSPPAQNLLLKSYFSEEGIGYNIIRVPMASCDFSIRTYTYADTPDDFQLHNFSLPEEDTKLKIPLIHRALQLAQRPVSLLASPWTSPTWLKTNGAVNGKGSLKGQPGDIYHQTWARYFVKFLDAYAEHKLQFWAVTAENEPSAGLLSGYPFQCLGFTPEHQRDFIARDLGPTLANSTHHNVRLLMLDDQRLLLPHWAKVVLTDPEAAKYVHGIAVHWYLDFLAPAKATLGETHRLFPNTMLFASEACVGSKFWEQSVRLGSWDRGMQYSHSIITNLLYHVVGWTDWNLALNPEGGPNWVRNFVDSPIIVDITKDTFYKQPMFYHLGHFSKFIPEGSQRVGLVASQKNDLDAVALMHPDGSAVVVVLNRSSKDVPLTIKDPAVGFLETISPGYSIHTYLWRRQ

Potency, active:
O=C1c2ccccc2C(=O)N1Cc1nn2c(-c3ccc(Cl)cc3)nnc2s1 7.78 µM

Potency, inactive:
CCCC(C(=O)NCc1ccco1)N(C(=O)CNS(=O)(=O)c1ccccc1)C1CCCC1 (centres undefined) > 76.9 µM, COc1ccc(NC(=O)c2ccco2)c(NC(=O)Cc2cccs2)c1 > 76.9 µM, CC12CCC(C(=O)O)(c3nc(C#N)c(C#N)nc31)C2(C)C (centres undefined) > 76.9 µM, NS(=O)(=O)c1ccc(NC(=O)CN2CCCCC2)cc1 > 76.9 µM, CCn1c(=O)c2c(nc3n2CCCN3CCc2ccccc2)n(C)c1=O > 76.9 µM, Cc1cc(N2CC(C(=O)O)CC2=O)ccc1Br (centres undefined) > 76.9 µM, CCCC1(CCC)NC(=O)NC1=O > 76.9 µM, O=C(NCC(c1cccnc1)N1CCN(c2ccccc2F)CC1)OCc1ccccc1 (centres undefined) > 76.9 µM, c1ccc(Cn2nnnc2C(c2ccccn2)N2CCOCC2)cc1 (centres undefined) > 76.9 µM, CCOC(=O)Cn1c(=O)c2c(nc3n2CCS3)n(C)c1=O > 76.9 µM, C=C(C)CSc1nc2ncccc2[nH]1 > 76.9 µM, COc1cccc(-c2nnc(SCC(=O)OC(C)C)n2Cc2ccco2)c1 > 76.9 µM, Clc1ccccc1CSc1nnc(-c2cccnc2)n1Cc1ccco1 > 76.9 µM, COc1ccc2sc(NC(C)=O)nc2c1 > 76.9 µM, COc1ccccc1-c1ccc(Nc2cccc(C(C)=O)c2)nn1 > 76.9 µM, O=C(CCCc1nc(-c2ccccc2)no1)NCc1cccnc1 > 76.9 µM, COc1ccc(N2C(=O)CSC23CCCCC3)cc1 > 76.9 µM, CCS(=O)(=O)N1CCC(C(=O)NCCc2ccccc2)CC1 > 76.9 µM, CCCCc1cc(O)c(CCCC)c(O)c1 > 76.9 µM, O=C(NCCCn1ccnc1)c1cc(S(=O)(=O)N2CCOCC2)c(Cl)cc1Cl > 76.9 µM, Cc1nn(C)cc1CNC(=O)CCC(=O)O > 76.9 µM, Cn1c(=O)c2cc(S(=O)(=O)NCCC(=O)Nc3ccc(Cl)cc3)ccc2n(C)c1=O > 76.9 µM, COc1ccc(CCn2c(=S)[nH]c3cc(C(=O)NCc4ccco4)ccc3c2=O)cc1OC > 76.9 µM, CCOC(=O)c1c(C2CC2)csc1NC(=O)CSCc1c(C)noc1C > 76.9 µM, O=C(O)CCCNC(=O)OCc1ccccc1 > 76.9 µM, COc1ccc(OC)c(NC(=O)CSc2nc3ccccc3c(=O)n2CCNC(C)=O)c1 > 76.9 µM, C1CN(c2nc3nonc3n3nnnc23)CCO1 > 76.9 µM, COc1cccc(C(=O)NC2CCN(C(=O)N3CCCCC3)CC2)c1 > 76.9 µM, Cc1oc(-c2ccccc2)cc1C(N)=O > 76.9 µM, C=CCN(CC(=O)NCC1CCCO1)C(=O)CCC(=O)Nc1cc(C)on1 (centres undefined) > 76.9 µM, C#CCSc1nc(-c2cccs2)ccc1C#N > 76.9 µM, COCCN1Cc2cccc(C(=O)Nc3cccc(C)c3C)c2C1=O > 76.9 µM, CCCS(=O)(=O)N1CCC(C(=O)NCCCOC(C)C)CC1 > 76.9 µM, CC(C)n1nnnc1SCC(=O)NCc1cccs1 > 76.9 µM, CCn1c(N2CCN(S(=O)(=O)c3ccccc3C(F)(F)F)CC2)nc2ccccc21 > 15.4 µM, Cc1ccc(C(=O)NCC2CCCO2)cc1N1CCCC1=O (centres undefined) > 76.9 µM, COc1cccc(NC(=O)CN2CCN(c3ccccc3F)CC2)c1 > 76.9 µM, Cc1nnc(-c2ccccc2)c[n+]1[O-] > 76.9 µM, Cc1cccc(C)c1NC(=O)C1CC(=O)N(C(C)C)C1 (centres undefined) > 76.9 µM, Cc1cc(C)n(-c2nnc(C)n2NS(C)(=O)=O)n1 > 76.9 µM, O=C(O)c1cc(S(=O)(=O)N2CCCCC2)ccc1F > 76.9 µM, O=C(c1ccc2c(c1)OCCCO2)c1cccs1 > 76.9 µM, CSc1nc(NC(C)(C)C)nc(N2CCOCC2)n1 > 76.9 µM, O=C(Oc1cccc(Oc2ccccc2)c1)N1CCOCC1 > 76.9 µM, O=C(CNC(=O)c1cccs1)NCCN1CCN(Cc2ccccc2)CC1 > 76.9 µM, CCC1(CC)NC(=O)N(CC(=O)Nc2sc3c(c2C(N)=O)CCC3)C1=O > 76.9 µM, CS(=O)(=O)N(CC(=O)N1CCCCC1)c1sc2c(c1C#N)CCCC2 > 76.9 µM, CCCN1C(=O)C(NS(=O)(=O)c2ccc(N)cc2)(C(F)(F)F)C(C(=O)OC)=C1C (centres undefined) > 76.9 µM, Cc1c(NC(=O)c2cccc(S(=O)(=O)N3CCOCC3)c2)c(=O)n(-c2ccccc2)n1C > 76.9 µM, O=C(O)CCCC(=O)Nc1ccc(C(=O)N2CCCCC2)cc1 > 76.9 µM, COc1ccccc1CNc1nc2nc3c(c(=O)n2[nH]1)CCC3, Cc1cccc(OCC(=O)N(Cc2cccs2)C2CCS(=O)(=O)C2)c1C (centres undefined) > 76.9 µM, COC(=O)c1ccc(-n2nnnc2SCc2ccccc2OC)cc1 > 76.9 µM, COc1cccc(-c2nn3c(-c4cccc(C)c4)nnc3s2)c1 > 76.9 µM, COc1ccc(OC)c(-c2cc(C(=O)Nc3c(C)nn(Cc4ccccc4C)c3C)no2)c1 > 76.9 µM, O=C(CCC(=O)N1CCN(c2ccccn2)CC1)Nc1nnc(C2CCCCC2)s1 > 76.9 µM, CC(=O)c1cccc(N(CC(=O)Nc2cccnc2)S(C)(=O)=O)c1 > 76.9 µM, CCOC(=O)c1c(NC(=O)CNCC(O)CO)sc(C)c1C (centres undefined) > 76.9 µM, COc1cc(C(=O)NCCCCCC(=O)O)cc(OC)c1OC > 76.9 µM, CN(C)c1nc2c(c(=O)n(C)c(=O)n2C)n1CC(=O)c1cccs1 > 76.9 µM, CNS(=O)(=O)c1cccc(C(=O)OC2CCCCC2=O)c1 (centres undefined) > 76.9 µM, O=S(=O)(NCc1ccncc1)c1ccc(Br)s1 > 76.9 µM, CCCc1cc(N2CCCC(C(=O)NCC)C2)n2ncnc2n1 (centres undefined) > 76.9 µM, COCCn1nnnc1CN1CCN2CCCC2C1 (centres undefined) > 76.9 µM, CC(C)n1nnnc1SCC(=O)NCc1ccco1 > 76.9 µM, CCc1[nH]nc2c1C(c1cccnc1)C(C#N)=C(N)O2 (centres undefined) > 76.9 µM, Cc1nn(Cc2ccccc2Cl)c(C)c1NC(=O)c1cc(-c2ccc(F)cc2)on1 > 76.9 µM, Nc1nnc(N2CCCCC2)s1 > 76.9 µM, Cc1ccc(C(C)C)c(OCCn2c(=O)oc3ccccc32)c1 > 76.9 µM, CCc1ccc2[nH]c(=O)c(CN(Cc3ccc(OC)cc3)Cc3nnnn3CCOC)cc2c1, O=C(c1nc2ccccc2s1)N1CCSCC1 > 76.9 µM, O=C(c1cccc(C(F)(F)F)c1)N1CCCCCC1 > 76.9 µM, CCCC(=O)CN1C(=O)C2(OCCO2)c2ccccc21 > 76.9 µM, COc1ccc(-c2nnc(SCC(=O)Nc3ccccc3)n2C)cc1 > 76.9 µM, O=C(CN1C(=O)c2ccccc2S1(=O)=O)NCCSC1CCCCC1 > 76.9 µM, CCCC(=O)Nc1ccc(Cl)c(NC(=O)c2cccnc2)c1 > 76.9 µM, N=c1oc2ccc3ccccc3c2cc1-c1nnc2n1CCCCC2 > 76.9 µM, COCCOC(=O)c1c(C)oc2ccc(OCc3cc(C(=O)OC)oc3C)cc12 > 76.9 µM, COc1cc(C(=O)NCc2nnc(SCC(=O)N3CCc4ccccc43)o2)cc(OC)c1OC > 76.9 µM, O=C(Nc1ccc(F)cc1)C1CCN(c2nnnn2-c2ccccc2)CC1 > 76.9 µM, CCc1nnc2sc(-c3ccc(NC(=O)c4ccc5c(c4)OCCO5)cc3)nn12 > 76.9 µM, Cc1ccc2c(CN3CCN(S(=O)(=O)c4ccc5c(c4)OCCO5)CC3)cc(=O)oc2c1C > 76.9 µM, COc1cc(C(=O)Nc2nnc(CC(=O)N3CCOCC3)s2)cc(OC)c1OC > 76.9 µM, CCOC(=O)C1=C(C)N=C2SC(C)C(=O)N2C1c1ccc(OC(C)=O)c(OCC)c1 (centres undefined) > 76.9 µM, CC1(C)CC(=O)c2c(O)cc(O)cc2O1 > 76.9 µM, Cc1ccc(CNC(=O)c2cccc(-n3cnnn3)c2)cc1 > 76.9 µM, COc1ccc(CNc2nc3nc(C)c(Cl)c(C)n3n2)cc1OC > 76.9 µM, COc1cccc(/C=N/n2c(CO)nc3ccccc32)c1OC > 76.9 µM, Cn1c(=O)n(C)c(=O)n(CC(=O)N2CCCCC2)c1=O > 76.9 µM, CCOC(=O)N1CCN(CC(=O)N2c3ccccc3CC2C)CC1 (centres undefined) > 76.9 µM, CC(=O)NC(C)C(=O)OCC(=O)c1ccc(Cl)s1 (centres undefined) > 76.9 µM, Cn1c(=O)c2c(nc(SCC(=O)c3cccs3)n2Cc2ccc(F)cc2)n(C)c1=O > 76.9 µM, COc1cc(C(=O)COC(=O)Cc2cnc3sccn23)cc(OC)c1OC > 76.9 µM
